Experimental data as given in the supplement of paper PMC10126150.
Sequences with one replicate were seen in a single cluster, so their values are uncertain.

tested on: ATP; assay: switch fluorescence ratio, 500 uM ATP over buffer (Cy3 cluster intensity, sum of 5 cycles each) (fold (ratio)); higher = stronger signal-on switching upon ATP binding; sequences stand for … in TCGTCGGCAGCGTCAGATGTGTATAAGAGACAGTTTTTTTTTTTTTTTTTTTTTTTTT…TC; details: aptamer strand: ATP DNA aptamer (quencher-CACCTGGGGGAGTATTGCGGAGGAAGG + anchor), 100 nM annealed; ATP concentration: 500 uM; one replicate
In short: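 Imaging in selection buffer was followed by imaging after 15 min with 500 uM ATP at 22 °C, for Cy3-labelled switching-strand clusters annealed to 100 nM quencher-labelled ATP aptamer on a modified Illumina MiSeq flow-cell. Five of these buffer/ATP cycles ran, separated by NaOH stripping and re-annealing. The fluorescence ratio per cluster is summed target-cycle over summed buffer-cycle Cy3 intensity, averaged per switch-domain sequence; clusters outside 100-1000 RFU were removed.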
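Also: ATP exposure 15 min at 22 °C before imaging.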

Sequence | switch fluorescence ratio
GTGAATTAGG | 1.03
GTGACAGTG | 1.04
GTGACCTCAG | 1
GTGACGACTT | 1.03
GTGACGCGCC | 1.13
GTGACGGGAT | 1.02
GTGACTCAC | 1.06
GTGACTCCGG | 1.02
GTGACTTCAT | 0.999
GTGACTTTA | 1.02
GTGAGCGGGA | 1.05
GTGAGCTTTT | 0.966
GTGAGGGCGG | 1.03
GTGAGTATG | 0.947
GTGAGTCAGT | 0.955
GTGATAATCA | 1.01
GTGATCAGAT | 0.957
GTGATCTACG | 1.02
GTGATGGGAA | 1.04
GTGATGGGG | 1.02
GTGATTTAAG | 0.963
GTGCACCAGG | 2.13
GTGCACGTA | 0.957
GTGCATGTAC | 1.23
GTGCCAATGG | 1.04
GTGCCACTTG | 0.958

Sequence | switch fluorescence ratio
GTGCCAGGAG | 1.05
GTGCCCCGGT | 1.02
GTGCCCTATT | 1.04
GTGCCGACTT | 0.997
GTGCCTAAGC | 0.987
GTGCGAACCC | 1.06
GTGCGCCGTC | 1.04
GTGCGCTCCG | 1.04
GTGCGGATAT | 0.99
GTGCGGCATA | 0.977
GTGCGTTTAT | 1.05
GTGCTGATTA | 0.994
GTGCTTATGC | 0.968
GTGCTTGGAT | 1.01
GTGCTTTGAT | 1.07
GTGCTTTGTT | 1.01
GTGGACATTG | 1.01
GTGGACGCTG | 0.959
GTGGAGTTAC | 1.07
GTGGATAGAG | 0.968
GTGGATGACT | 1.03
GTGGATGCGA | 1.03
GTGGATTCGA | 1.02
GTGGCAAGCA | 0.977
GTGGCACGCG | 1.01
GTGGCAGTTC | 1.08

Sequence | switch fluorescence ratio
GTGGCCAGTT | 1.03
GTGGCCGAAG | 0.985
GTGGCTATAA | 1.01
GTGGCTGCG | 0.992
GTGGCTGGTA | 1.01
GTGGCTTCGG | 0.995
GTGGGACA | 0.969
GTGGGCCGAC | 0.946
GTGGGGAGC | 1.03
GTGGGGGCGA | 0.945
GTGGGGTGCG | 0.977
GTGGGTCAAG | 0.973
GTGGGTCATG | 1.02
GTGGTACCGC | 1.03
GTGGTAGGCT | 1.03
GTGGTATACT | 1.04
GTGGTCAGGA | 1.07
GTGGTCCTTA | 0.976
GTGGTCGGTT | 0.987
GTGGTGAGCA | 1.02
GTGGTGATAA | 1.03
GTGGTGGTAG | 0.999
GTGGTTGTG | 0.965
GTGTAAGGAT | 1
GTGTACACCG | 0.955
GTGTACTAAG | 1.04

Sequence | switch fluorescence ratio
GTGTAGCAAG | 1.09
GTGTATATTA | 0.993
GTGTCAAAGC | 0.994
GTGTCAATGC | 1.9
GTGTCATGTG | 0.976
GTGTCCACGG | 0.915
GTGTCTAATT | 1.01
GTGTCTTCA | 1.01
GTGTGAATAG | 1.05
GTGTGCATGG | 1.03
GTGTGCGAA | 1
GTGTGGAGCG | 0.994
GTGTGGGTTG | 1.06
GTGTGTATTT | 0.994
GTGTGTGTGT | 1.05
GTGTTAACGA | 1.01
GTGTTCAACT | 0.99
GTGTTCCGAA | 1.03
GTGTTCTCTG | 1
GTGTTGCAAG | 1.06
GTGTTGGCGT | 1.04
GTGTTTACGT | 0.98
GTGTTTAGAT | 0.959
GTGTTTGAGG | 0.985
GTGTTTGGAG | 0.988
GTTAAAACGT | 1.02

Sequence | switch fluorescence ratio
GTTAAACCGA | 1.2
GTTAAAGTTG | 0.947
GTTAAATTGG | 0.949
GTTAACATTT | 1.03
GTTAACGGTC | 1.02
GTTAACTTGG | 0.988
GTTAATCCGC | 1.89
GTTAATCTGG | 1.01
GTTAATGATG | 1.01
GTTACAATTG | 1.03
GTTACACTTT | 1.02
GTTACAGCTG | 1.04
GTTACGAAGT | 0.979
GTTACGGAGT | 0.997
GTTAGAGTGT | 0.994
GTTAGCATAA | 1.01
GTTAGCGCCT | 0.961
GTTAGGCTGT | 1.03
GTTAGGTCG | 1.04
GTTAGGTCTG | 1.02
GTTAGGTTGT | 0.953
GTTAGTAAGA | 1.04
GTTAGTAGCG | 0.951
GTTAGTGGAC | 1.01
GTTATCGT | 0.975
GTTATGAACA | 1.01

Sequence | switch fluorescence ratio
GTTATGAGTG | 0.993
GTTATGTCTT | 0.983
GTTATTCCCA | 1.05
GTTCAATGCG | 0.952
GTTCACCGTC | 0.965
GTTCATAGGG | 0.956
GTTCATTATT | 1.01
GTTCATTTGA | 1.04
GTTCCAGGGA | 1.07
GTTCCAGGTT | 1.06
GTTCCGATAA | 1.15
GTTCCGGTGG | 0.982
GTTCCTGAGG | 1.05
GTTCCTGT | 0.941
GTTCCTTAAC | 1.02
GTTCGAAAAG | 0.968
GTTCGACATA | 0.974
GTTCGACTTT | 0.961
GTTCGAGCTA | 1.01
GTTCGCAGCT | 1.08
GTTCGCGAG | 0.984
GTTCGCTGG | 1.14
GTTCGGAGTT | 1.03
GTTCGGGAG | 1.02
GTTCGGGTAC | 1.05
GTTCGTTGGG | 0.982

Sequence | switch fluorescence ratio
GTTCTATATA | 0.959
GTTCTGAGAT | 1.01
GTTCTTACAA | 0.938
GTTGAAATAG | 1.04
GTTGACCTTG | 1.02
GTTGACGCGA | 1.55
GTTGACTGAG | 1.04
GTTGAGAG | 0.98
GTTGAGATGG | 0.965
GTTGAGCATG | 1.06
GTTGAGCCTC | 0.973
GTTGATAGTT | 0.988
GTTGATCTG | 0.984
GTTGATTCAA | 1
GTTGCCGGGA | 0.968
GTTGCGGTGG | 1.02
GTTGCGTTAT | 1.02
GTTGCTATAA | 1.01
GTTGCTATTC | 1.03
GTTGGCCGGT | 0.924
GTTGGCGAAA | 0.928
GTTGGCTAGG | 1.07
GTTGGGAGT | 0.982
GTTGGGCCCG | 0.996
GTTGGTCGCG | 0.991
GTTGTAACCG | 0.986

Sequence | switch fluorescence ratio
GTTGTACATA | 1.06
GTTGTATGAG | 1
GTTGTCGGTT | 1.03
GTTGTCTAT | 1.01
GTTGTGCAAC | 1.02
GTTGTTCCTT | 0.997
GTTTAAAGA | 1.01
GTTTAACCGT | 1.02
GTTTAAGCAG | 0.97
GTTTACTAAT | 0.985
GTTTAGTAAA | 0.99
GTTTAGTCTG | 1.02
GTTTATCAAG | 0.985
GTTTCAATAT | 1
GTTTCAGCAG | 1.02
GTTTCCCTGA | 0.993
GTTTCCTACT | 0.98
GTTTCGGGCC | 0.894
GTTTCTTGTC | 0.992
